Measured values from PubChem BioAssay AID1508624 (National Center for Advancing Translational Sciences (NCATS), 2021).
The whole screen tested about 48,000 compounds, of which about 120 (0.25%) were called active. About 4% were inconclusive and are not listed. Calls come from the whole dose curve; as a rule, active = well fitted activation curve with a large enough effect; inconclusive = small, poorly fitted or top-dose-only effect, or another doubt; inactive = no such curve, though single readings can be large or run the other way. The list shows a part of the results.

experiment: Primary qHTS for Identification of Small Molecule Activators of Huntingtin-Antisense Promoter Activity; settings: HEK293 HTT-AS promoter firefly luciferase reporter, 24 h; series mostly up to 57.5 µM; activity change, positive = activation: at the top concentration; note: nearly all actives have a fitted effect of over 55% in size
Outline: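 Firefly luciferase signal from promoter-reporter HEK293 cells was scaled between vehicle (0%) and zero RLU (-100%). Compounds were tested at final concentrations of up to 57.5 uM over 24 h at 37 degrees C. PTC124 at 50 uM final served as control inhibitor.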

Activity change, positive = activation, inactive:
COc1ccc(CCNS(=O)(=O)c2ccc(N3CCCCS3(=O)=O)cc2)cc1OC -14.6%
Cc1nc2c(-c3ccccc3)c(C)nn2c(C)c1CCC(=O)NCc1ccc(Cl)cc1 -7.14%
Cc1ccc(CNC(=O)CCCN2C(=O)CCn3nc(-c4cn(C)c5ccccc45)cc32)cc1 -26.2%
O=C(Cn1cnc2onc(-c3ccc(F)cc3)c2c1=O)Nc1cccc(C(F)(F)F)c1 -50.1%
CS(=O)(=O)N(CC(=O)NCCSCc1ccccc1)c1cc(C(F)(F)F)ccc1Cl -15.1%
COc1ccc(NC(=O)CC2C(=O)N(c3ccccc3)C(=O)N2C2CCCCC2)cc1 (stereo not given) -12.7%
COc1ccccc1CNC(=O)c1cc2cccc3c2n1CC(C)S3 (stereo not given) -36.7%
CCOC(=O)c1nnn(CC(=O)Nc2cc(C)cc(C)c2)c1C(=O)OCC 9.86%
CCOC(=O)c1ccc(NC(=O)c2nc(SC(C)C)ncc2Cl)cc1 -4.33%
CCc1ccc(NC(=O)N2c3ccccc3Sc3ccccc32)cc1 -28.8%
CCN(Cc1ccccc1)S(=O)(=O)c1ccc2c(c1)CCCN2C(C)=O -36.6%
Cc1ccc(C)c(Cn2cnc3c(cnn3-c3ccc(F)cc3)c2=O)c1 -2.03%
CCOC(=O)N1CCC2(CC1)OC(=O)C(C)=C2C(=O)NCc1ccc(C)cc1 -6.9%
CCNC(=O)c1ccc(CSc2nc3cccnc3n2Cc2ccc(OC)cc2)cc1 -16.3%
CCC1CCc2nc3sc(C(=O)Nc4ccc(C)cc4C)c(N)c3cc2C1 (stereo not given) -10%
COC(=O)Cn1ccc2cc(S(=O)(=O)N3CCCCCC3)ccc21 -24.1%
CCN(C(=O)CN1C(=O)COc2ccc(S(=O)(=O)N3CCOCC3)cc21)c1cccc(C)c1 -1.3%
O=C(NCCc1csc(-c2cccc(F)c2)n1)c1ccccc1C(F)(F)F -18.1%
COC(=O)c1ccc(NC(=O)Cn2c(-c3nonc3N)nc3ccccc32)cc1 4.24%
CCCc1cnc2c(c1SCC(=O)Nc1c(C)cc(C)cc1C)c(=O)n(C)c(=O)n2C -4.92%
Cc1nn(CC(=O)N2CCC(C)CC2)c(=O)c2cc3occc3n12 0.987%
Cc1cccc(-c2nc(CN3CCCC(C(=O)NCc4ccc(Cl)cc4)C3)c(C)o2)c1 (stereo not given) -37.1%
CSc1ccc(C(=O)Nc2ccc(-c3nc4ccccc4s3)c(O)c2)cc1 -14.1%
CCC(=O)N1CCc2cc(S(=O)(=O)CCC(=O)N3CCN(c4cccc(Cl)c4)CC3)ccc21 -30.6%
COc1ccc2c(c1)c1c(c(=O)n(Cc3ccccc3)c(=O)n1CC(=O)NCc1ccc(C)cc1)n2C -10.5%
Cc1cc(C)cc(NC(=O)c2oc3ccc4c(c3c2C)C(=O)CC(C)(C)O4)c1 -48.2%
COc1ccc(N2CCN(C(=O)CCC(=O)NNc3nc4ccccc4c4nc(C)nn34)CC2)cc1 -10.4%
Cc1ccc(C)c(N2CCN(C(=O)c3ccc(Nc4nc5ccccc5n5nnnc45)cc3)CC2)c1 13.8%
Cc1ccc(OCc2nnc(SCC(=O)Nc3ccccc3C(C)C)o2)cc1 -2.08%
CCc1ccc(NC(=O)c2ccc3nc(C(C)C)oc3c2)cc1 14.6%
COc1cc(OC)c(NC(=O)Cn2c(=O)cc(C)c3c(C)nn(-c4ccc(C)cc4)c32)cc1Cl -10%
CSc1ccc(-c2nc3c(C)cccn3c2Nc2ccc3c(c2)OCCO3)cc1 -3.47%
CC(=O)Nc1cccc(-c2nnc(SCC(=O)c3cc([N+](=O)[O-])ccc3Br)o2)c1 -27.2%
COc1cc(C(c2c(C)[nH][nH]c2=O)c2c(C)[nH][nH]c2=O)ccc1OC(=O)c1ccccc1F -1.01% [at 11.5 µM, percent change from vehicle, -100% = no light]
CC(=O)c1cccc(Nc2c3c(nc4nc(-c5cccs5)nn24)CCCC3)c1 -16.9%
CC(=O)Nc1ccc(NC(=O)CSc2nnc3c4cc(Br)ccc4n(C)c3n2)cc1 11.4%
CCCC(=O)Nc1cccc(-c2nc3cc(C)c(C)cc3o2)c1C -4.24%
COC(=O)c1ccc2oc(=O)c(S(=O)(=O)c3ccc(C)cc3)cc2c1 -7.79%
Cc1c(NC(=O)OC[C@@H]2COCCN2)cn2ncnc(Nc3ccc4c(cnn4Cc4cccc(F)c4)c3)c12 -35.1%
Cc1ccc(CNC(=O)C2CCN(c3nc4ccc(C)cc4[nH]3)CC2)cc1 -8.87%
COc1cccc(C(=O)NC(c2ccc(Cl)cc2)c2cc(Cl)c3cccnc3c2O)c1 (stereo not given) -43.7%
FC(F)(F)c1ccc(C2=Nc3ccccc3NC(c3cccs3)=N2)cc1 -11.4%
COc1ccc(F)cc1NC(=O)C1CCN(c2nc(-c3ccc(OC)c(OC)c3)no2)CC1 28.4%
Cc1ccc(-n2nc(C)c3c(C)cc(=O)n(CC(=O)NCc4ccc(OC(C)C)cc4)c32)cc1 -23.3%
COc1ccc(Nc2ncc(C(=O)Nc3cc(C)ccc3OC)c3ccccc23)cc1 -23.4%
Cc1ccc2c(c1)c1c(c(=O)n(-c3ccccc3C)c(=O)n1Cc1ccccc1F)n2C -22.9%
COc1ccc(NC(=O)CCc2c(C)nc3c(-c4ccccc4)c(C)nn3c2C)cc1Cl -30.3%
Cn1c(C(=O)NCc2ccc(Cl)cc2)cc2c(=O)n(C)c3ccccc3c21 -13.4%
Cc1ccc(Cl)cc1NC(=O)Cn1c(=O)oc2cc(S(=O)(=O)N3CCCCCC3)ccc21 -32%
Cc1ccc2nc(NCCN)c3ncc(C)n3c2c1 -34.2%
COc1ccc(-c2noc(C(C)NC(=O)c3ccco3)n2)cc1 (stereo not given) -35.4%
Cc1ccc(NC(=O)c2ccc(=O)n(CC(=O)Nc3cc(C)cc(C)c3)n2)cc1 -5.43%
Cc1cccc2c1-c1sc(C(=O)NCCCN3CCN(c4cccc(Cl)c4)CC3)cc1CO2 -41.7%
Cc1ccc(OCC(=O)Nc2c(Cl)ccc3nsnc23)cc1C -24%
CCOC(=O)N1CCc2c(sc(NCc3cccs3)c2C(=O)Nc2cc(OC)ccc2OC)C1 -16.2%
CC(C)c1ccc(Nc2cc(C(=O)NCc3cccs3)c3ccccc3n2)cc1 -13.8%
CCOC(=O)c1nnn(C(CC)C(=O)Nc2c(C)cccc2C)c1C(=O)OCC (stereo not given) -9.16%
CCN(CC)C(=O)CSc1nnc2[nH]c(=O)cc(C)n12 9.32%
Cc1ccc(NC(=O)N2CCN(c3nnc(C)c4c(C)n(-c5ccccc5)nc34)CC2)c(Cl)c1 3.89%
CCNc1nc(Oc2ccc(OCC(=O)OC)nn2)nc(N2CCOCC2)n1 -3.17%
